In the supplement of paper PMC7125110:
± gives the standard error. Variants at the background level are over-represented here.

B1: glmS ribozyme (parent)
chain: AUAAAAGCGCCAGAACUACAGAAAUGUAGUUGACGAGGAGGAGGUUUAUCGAAUUUUCGGCGGAUGCCUCCAAA

Variants of: B1
Assay: self-cleavage kobs at 160 uM GlcN6P; higher = faster cleavage; RNA array
Details: with glucosamine-6-phosphate
How it was run: (§1)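 Barcoded ribozyme variants, transcribed in situ by E. coli RNA polymerase on sequenced MiSeq chips, were followed via a hybridised Cy3 probe at 37 °C. Glucosamine-6-phosphate ranged from 40 μM to 10 mM in HEPES/KCl/Mg(OAc)2 buffer. kobs came from decay fits to per-tile medians, and kcat and KM from weighted Michaelis–Menten fits.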

Row | Variant | self-cleavage kobs at 160 uM GlcN6P
1 | C34U G37U U56G | < 1e-05 s⁻¹
2 | G35A C67G C70A C71G | < 1e-05 s⁻¹
3 | G35A G38U | < 1e-05 s⁻¹
4 | G35A G63A | < 1e-05 s⁻¹
5 | G35A U54C C70U | < 1e-05 s⁻¹
6 | G35C A39C G51U | < 1e-05 s⁻¹
7 | G35C U69A | < 1e-05 s⁻¹
8 | G35U U49A C68U | < 1e-05 s⁻¹
9 | G35U U56A C61A | < 1e-05 s⁻¹
10 | A36C A53U | < 1e-05 s⁻¹
11 | A36C G51C | < 1e-05 s⁻¹
12 | A36G G40C A52U U55A A64U | < 1e-05 s⁻¹
13 | G37A A42C U46C | < 1e-05 s⁻¹
14 | G37U G59C G63U | < 1e-05 s⁻¹
15 | G38C A48U C67A | < 1e-05 s⁻¹
16 | G38C C61U C70A | < 1e-05 s⁻¹
17 | G38C C70U C71U | < 1e-05 s⁻¹
18 | A39C C58U | < 1e-05 s⁻¹
19 | A39G C50G | 0.000247 ± 0.00011 s⁻¹

Row | Variant | self-cleavage kobs at 160 uM GlcN6P
20 | A39U G41A G62U | < 1e-05 s⁻¹
21 | A39U G51U G62U C71A | < 1e-05 s⁻¹
22 | A39U G63A | < 1e-05 s⁻¹
23 | G40A C58A G66U | < 1e-05 s⁻¹
24 | G40C A64G | 4.29e-05 ± 1.9e-05 s⁻¹
25 | G40C G51C | < 1e-05 s⁻¹
26 | G40U A42C A48G | < 1e-05 s⁻¹
27 | G41A A64G | 7.21e-05 ± 2e-05 s⁻¹
28 | G41U C58U G59A C70U | < 1e-05 s⁻¹
29 | G41U C67U | < 1e-05 s⁻¹
30 | G41U G63A C71U | < 1e-05 s⁻¹
31 | G41U U57C A64U | < 1e-05 s⁻¹
32 | A42C C50A C68U C70G | < 1e-05 s⁻¹
33 | A42C C50U C58G | < 1e-05 s⁻¹
34 | A42C U45G C68U | < 1e-05 s⁻¹
35 | A42G C50G A64G | < 1e-05 s⁻¹
36 | A42U C68U C70G | < 1e-05 s⁻¹
37 | A42U G43U G60A | < 1e-05 s⁻¹
38 | G43C C61A U69C | < 1e-05 s⁻¹

Row | Variant | self-cleavage kobs at 160 uM GlcN6P
39 | U45A C67A C68G | < 1e-05 s⁻¹
40 | U45C C67U C68A | < 1e-05 s⁻¹
41 | U45G A52U A53G | < 1e-05 s⁻¹
42 | U46C U49A C68G C71A | < 1e-05 s⁻¹
43 | U47C C50U | < 1e-05 s⁻¹
44 | A48C G63C | < 1e-05 s⁻¹
45 | A48G G59A | < 1e-05 s⁻¹
46 | A48U G62U A64G | < 1e-05 s⁻¹
47 | A48U U65A | < 1e-05 s⁻¹
48 | U49A A64G | < 1e-05 s⁻¹
49 | U49G U57G | < 1e-05 s⁻¹
50 | C50G A52G | 3.58e-05 ± 1.7e-05 s⁻¹
51 | A52G C61A | < 1e-05 s⁻¹
52 | A53C U54G A64C | < 1e-05 s⁻¹
53 | U54C G59A | < 1e-05 s⁻¹
54 | U56A G63C | < 1e-05 s⁻¹
55 | G66U C71G | < 1e-05 s⁻¹
56 | C67U C68U C71G | 7.37e-05 ± 2e-05 s⁻¹

Variants of: B1
Assay: self-cleavage kobs at 2500 uM GlcN6P; higher = faster cleavage; RNA array
Details: with glucosamine-6-phosphate
How it was run: as §1

Row | Variant | self-cleavage kobs at 2500 uM GlcN6P
57 | C34U G37U U56G | < 1e-05 s⁻¹
58 | G35A U54C C70U | < 1e-05 s⁻¹
59 | G35C A39C G51U | < 1e-05 s⁻¹
60 | G35C U69A | < 1e-05 s⁻¹
61 | A36C A53U | < 1e-05 s⁻¹
62 | G37A A42C U46C | < 1e-05 s⁻¹
63 | G37U G59C G63U | < 1e-05 s⁻¹
64 | G38C A48U C67A | < 1e-05 s⁻¹
65 | G38C C61U C70A | < 1e-05 s⁻¹
66 | A39U G41A G62U | < 1e-05 s⁻¹
67 | A39U G51U G62U C71A | < 1e-05 s⁻¹
68 | A39U G63A | < 1e-05 s⁻¹
69 | G40A C58A G66U | < 1e-05 s⁻¹
70 | G40C A64G | 0.000837 ± 0.00017 s⁻¹
71 | G40C G51C | < 1e-05 s⁻¹
72 | G41A A64G | 0.00071 ± 0.00016 s⁻¹
73 | A42C U45G C68U | < 1e-05 s⁻¹
74 | A42U C68U C70G | < 1e-05 s⁻¹
75 | G43C C61A U69C | < 1e-05 s⁻¹
76 | U46C U49A C68G C71A | < 1e-05 s⁻¹
77 | A48C G63C | < 1e-05 s⁻¹
78 | A48G G59A | 6.29e-05 ± 1.8e-05 s⁻¹
79 | A48U G62U A64G | < 1e-05 s⁻¹
80 | U49G U57G | < 1e-05 s⁻¹
81 | C50G A52G | 3.29e-05 ± 1.4e-05 s⁻¹
82 | U56A G63C | < 1e-05 s⁻¹

Variants of: B1
Assay: self-cleavage kobs at 10000 uM GlcN6P; higher = faster cleavage; RNA array
Details: with glucosamine-6-phosphate
How it was run: as §1

Row | Variant | self-cleavage kobs at 10000 uM GlcN6P
83 | G35U U56A C61A | < 1e-05 s⁻¹
84 | A36C A53U | < 1e-05 s⁻¹
85 | A36C G51C | < 1e-05 s⁻¹
86 | G40C A64G | 0.000811 ± 9.3e-05 s⁻¹
87 | G41A A64G | 0.00128 ± 0.00023 s⁻¹
88 | G41U C67U | 2.83e-05 ± 1.1e-05 s⁻¹
89 | U46C U49A C68G C71A | < 1e-05 s⁻¹
90 | A52G C61A | < 1e-05 s⁻¹
